In all, about 33,000 sequences were measured (“E-score (-0.5 to 0.5)”: median about -0.013, highest 2% from about 0.3 on). The list shows a part of the results.
What follows are sequences tested against T1, Msn1 (UniProt P22148) (assay: PBM E-score (8-mer binding enrichment) (E-score (-0.5 to 0.5)); higher = stronger / more preferred TF binding; most listed sequences are background and not binding sites). Conditions: protein concentration: 200 nM; construct: GST-full length.
T1 sequence: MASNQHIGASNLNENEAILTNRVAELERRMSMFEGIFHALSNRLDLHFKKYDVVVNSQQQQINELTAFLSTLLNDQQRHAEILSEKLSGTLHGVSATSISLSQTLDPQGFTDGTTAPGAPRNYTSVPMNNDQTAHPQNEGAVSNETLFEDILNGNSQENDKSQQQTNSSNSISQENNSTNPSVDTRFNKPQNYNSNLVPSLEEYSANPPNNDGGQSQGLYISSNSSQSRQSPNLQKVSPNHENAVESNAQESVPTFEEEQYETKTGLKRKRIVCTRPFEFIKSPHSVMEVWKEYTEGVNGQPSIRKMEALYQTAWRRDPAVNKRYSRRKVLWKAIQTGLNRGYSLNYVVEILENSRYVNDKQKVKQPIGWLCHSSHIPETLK
Procedure, shortened: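 Full-length yeast transcription factors or their DNA-binding domains, GST-tagged and expressed with PURExpress, were applied at about 100-200 nM to universal all-10-mer Agilent arrays. These arrays had been made double-stranded by primer extension on fresh or once-stripped slides. Detection used fluorescent anti-GST, normalisation used masliner, and E-scores for ungapped eight-base words pooled with reverse complements came from the Universal PBM Analysis Suite.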

| Sequence | PBM E-score |
| --- | --- |
| CCGGGAAG | -0.0813 |
| AAGATCGC | 0.0284 |
| CGATACAG | 0.121 |
| CCAATTTC | 0.00584 |
| AGAGTATG | -0.143 |
| CCGTCCGA | 0.0831 |
| ACACGTCC | 0.21 |
| GAACGAAA | -0.0121 |
| CATTGACG | 0.0256 |
| CCGTAGCA | -0.0746 |
| AGGTTAAC | -0.0876 |
| GGTACTTA | 0.00855 |
| ATAGAGTC | -0.141 |
| ACCTTTGC | 0.00421 |
| CCAGTGGG | -0.244 |
| ATTATCTG | 0.0964 |
| CTGGAGGC | -0.262 |
| ATTGCGGC | -0.00373 |
| AGTTTATC | 0.107 |
| CTTTGCCA | -0.123 |
| CCATCGTA | 0.0514 |
| ATTCGGGA | 0.074 |
| CCCGGGAA | 0.0917 |
| AATTCTTA | -0.0044 |
| ACCGCAAA | 0.14 |

| Sequence | PBM E-score |
| --- | --- |
| AACATGTC | 0.401 |
| GACAGACA | 0.414 |
| AACTGCGG | 0.0882 |
| CGACAACG | 0.144 |
| ATTAACGA | 0.174 |
| AATAGAGG | -0.0697 |
| AAGTTTGG | 0.142 |
| ATCTTACG | 0.0146 |
| CCGCCGAG | -0.0459 |
| AAGCGAGT | 0.153 |
| ACTTATAG | -0.103 |
| ATAAAGAC | 0.162 |
| ATTAAAAG | 0.156 |
| ATCCGCTC | -0.22 |
| GTCGCGTA | 0.186 |
| AAACGCGA | 0.0192 |
| ATCGCCAT | -0.107 |
| CGAAGTAC | 0.0703 |
| CATCGGCA | -0.0221 |
| CATCTTGG | -0.0375 |
| AGTGATAT | -0.0408 |
| TGAGAACA | -0.0303 |
| GAAGGGGC | -0.168 |
| GGATTACA | -0.105 |
| ACACACAC | 0.0227 |

| Sequence | PBM E-score |
| --- | --- |
| CGAGAATA | 0.0249 |
| GCAGTACA | 0.109 |
| TACTTGAA | 0.126 |
| AGGGCGGG | -0.184 |
| AGACCAAT | 0.0168 |
| CAACGAAG | -0.0539 |
| ATATGTTG | 0.0727 |
| AAGGCCAG | -0.149 |
| AGCGTACT | 0.02 |
| CTACCAAG | 0.0277 |
| AGGTGCAA | -0.061 |
| GTCGAGAA | 0.0485 |
| CCCCAAAG | -0.247 |
| GGAAATCA | -0.0501 |
| GTGAAGAA | 0.0558 |
| ATATCTCC | 0.121 |
| ATGGACAG | 0.251 |
| GAACGTCA | -0.11 |
| GGAAGAGA | 0.0243 |
| CCGCCAGC | -0.278 |
| CGGTATTA | -0.0986 |
| ACAGATGG | -0.0439 |
| ACACGTGT | -0.0849 |
| AGGATGAC | 0.0513 |
| ATGGTCGA | 0.0685 |

| Sequence | PBM E-score |
| --- | --- |
| GGAGACTA | -0.049 |
| GATATGGC | -0.323 |
| ATTTCATG | -0.101 |
| ATTGAGTA | 0.162 |
| CGAAATGA | 0.15 |
| CAGAAGGC | -0.207 |
| CCGGGAGG | -0.314 |
| AGACAGAA | 0.00949 |
| CTGTTGGA | 0.0781 |
| AGCGGGAT | -0.231 |
| AAGGACCA | -0.0926 |
| ATATCGCA | -0.101 |
| CGGATAAC | 0.154 |
| GAACCGAC | 0.0771 |
| CAGTATCC | 0.0646 |
| CTCCCTAC | -0.167 |
| GGGCGCAC | -0.147 |
| ATAAAATG | 0.341 |
| ACTCTGGC | 0.00726 |
| AATATTAC | 0.101 |
| CGTGGTCA | -0.144 |
| AGAGTCAT | -0.0634 |
| GCGCGTTA | 0.163 |
| AGCGTCAA | -0.15 |
| ACTTCGAA | 0.167 |

| Sequence | PBM E-score |
| --- | --- |
| ATTGACGC | -0.0689 |
| ATAACAAT | 0.00977 |
| TAAGGGGA | -0.0448 |
| ACCCCCAC | -0.357 |
| ATCATCGG | -0.0791 |
| GGGTTTGA | 0.0837 |
| ATTTCGGA | 0.239 |
| GTGTGTCA | 0.211 |
| GGACACGA | 0.396 |
| CATCAGAA | 0.00838 |
| AGGGCTGC | -0.212 |
| GAAACCCC | -0.194 |
| CAGTCCTA | 0.0807 |
| ACCGGACT | 0.0676 |
| CAGCGATG | -0.111 |
| GAGCCAAC | -0.104 |
| GAGTTGAC | 0.0485 |
| AGTTCCCG | -0.0612 |
| AGCAAGAA | -0.0616 |
| AACTAGGC | -0.078 |
| CGCTTCCG | 0.0365 |
| GTCTGCAC | -0.027 |
| AAAGAGCC | -0.262 |
| ATGGCCTG | -0.136 |
| CTTTGCTC | -0.0119 |

| Sequence | PBM E-score |
| --- | --- |
| AGCTTAAG | -0.0841 |
| TAGCTGAA | -0.108 |
| ACATCACG | 0.161 |
| ACCGCCCC | -0.2 |
| TACACTAA | 0.0915 |
| ATGAGATG | 0.00393 |
| CCCCGCTC | -0.326 |
| ACGGTCCA | -0.114 |
| GCTATATA | 0.0156 |
| CGATCAAC | -0.107 |
| CCACGGAC | 0.115 |
| CGAGCCAA | -0.0147 |
| GTCGCCTA | -0.0841 |
| AGCGAGCA | -0.0774 |
| AATACGCA | -0.151 |
| ACGCGGGC | -0.109 |
| AGGTATTC | 0.0358 |
| ACACCAGG | -0.109 |
| CTCGCTCC | -0.0169 |
| AAATCAAC | 0.0362 |
| CGATAATC | -0.161 |
| ACGTCACC | -0.0947 |
| CAAGTCCC | 0.148 |
| GTGGGACA | 0.455 |
| ATGTCCAC | 0.446 |

| Sequence | PBM E-score |
| --- | --- |
| ATCCTATA | 0.214 |
| GACCGTAC | -0.291 |
| CACTGAAA | 0.0169 |
| CATAGCCA | -0.0819 |
| AGTCGCTA | -0.0278 |
| CTAGGCCC | -0.389 |
| GATTACAC | 0.00418 |
| ACCTTCAC | -0.103 |
| ATATTATC | 0.0685 |
| GCAAGGGA | -0.198 |
| AGCGGGTG | -0.199 |
| CGGACCCG | -0.0234 |
| ACCTCATC | -0.152 |
| CGGGCTTA | -0.132 |
| CGCATTAC | 0.0774 |
| GCTGCACC | -0.376 |
| AACTGTAA | 0.0801 |
| CCCGGAAC | 0.0746 |
| GAGGCCGC | -0.133 |
| CTACCATC | -0.244 |
| ATCTCATA | -0.0891 |
| AGAGCTTA | -0.0381 |
| CGTTCGGC | -0.0508 |
| AAAAGAGC | -0.0499 |
| CGTAACTA | -0.0861 |

| Sequence | PBM E-score |
| --- | --- |
| ATGTAGGA | -0.0259 |
| ATCGACAT | 0.279 |
| CGGTTTTC | 0.0994 |
| AGTATATC | 0.0949 |
| GAAGGCGA | -0.267 |
| ATCATACC | 0.0673 |
| GGCTACCC | -0.338 |
| GGATCCGA | -0.0542 |
| ATTATCTA | 0.209 |
| AAAAAACA | 0.231 |
| ACCCGGAC | 0.152 |
| GTTATGCA | -0.16 |
| GACATGTC | 0.455 |
| CCTGAGAA | -0.0528 |
| TCAGTCGA | 0.117 |
| AAGAAACG | 0.0621 |
| CCTGCCTA | -0.0808 |
| AGTTGTTG | 0.0635 |
| CAGAGCGG | -0.156 |
| ATATACTA | 0.116 |
| CCCGTGTA | -0.1 |
| ATTATGGG | -0.0595 |
| CATGACGC | -0.012 |
| ACTTCTGC | 0.0517 |
| ATAGAATA | 0.0864 |

| Sequence | PBM E-score |
| --- | --- |
| AAGGAGGC | -0.336 |
| CAAGACCA | -0.135 |
| CCCCCTCG | -0.307 |
| GTCTGCTA | 0.213 |
| CAGGAGAG | -0.162 |
| AGGGTGTC | -0.134 |
| CCAAGAGG | -0.25 |
| AGAGCAAA | -0.219 |
| AGAGATAC | 0.0813 |
| AAGATATA | 0.0934 |
| ATCTATCA | 0.141 |
| CTGCAACA | -0.111 |
| CCTGTGTA | 0.228 |
| AATACTAT | 0.0477 |
| CCCTCGAC | -0.145 |
| CGCGGGGA | 0.0222 |
| ACCCGTAA | -0.0817 |
| GTACGTAC | 0.00521 |
| GCAAAACA | -0.0693 |
